Laboratory results: the supplement of paper PMC12217912
Some of the results follow. Sequences were assembled here from the parent chain. Values near 0.05 are background.

B1: TEV protease; numbered along this chain (parent)
chain: MGESLFKGPRDYNPISSSICHLTNESDGHTTSLYGIGFGPFIITNKHLFRRNNGTLVVQSLHGVFKVKDTTTLQQHLVDGRDMIIIRMPKDFPPFPQKLKFREPQREERICLVTTNFQTKSMSSMVSDTSCTFPSGDGIFWKHWIQTKDGQCGSPLVSTRDGFIVGIHSASNFTNTNNYFTSVPKNFMELLTNQEAQQWVSGWRLNADSVLWGGHKVFMVKPEEPFQPVKEATQL

Variants of: B1
Test: raw area under fraction-flipped curve 0-4 h after induction (AUC4h, not background-subtracted), DNA-recorder readout of cleavage of the substrate (dimensionless); higher = more cleavage of the substrate by the protease variant
Conditions: temperature: 34 °C; time window: 0-4 h after rhamnose induction
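Also: Bxb1 expression induced with 0.2% (w/v) L-rhamnose at OD600 near 0.5, cultures sampled hourly, flipped fraction per protease–substrate barcode pair counted by paired-end Illumina sequencing.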

| Variant | area with substrate ENLDFQS | area with substrate ENLEFQS | area with substrate ENLFFQS | area with substrate ENLHFQS | area with substrate ENLKFQS | area with substrate ENLLFQS | area with substrate ENLMFQS | area with substrate ENLNFQS | area with substrate ENLPFQS | area with substrate ENLQFQS | area with substrate ENLRFQS | area with substrate ENLTFQS | area with substrate ENLVFQS | area with substrate ENLWFQS | area with substrate ENLGFQS | area with substrate ENLCFQS | area with substrate ENLIFQS | area with substrate ENLSFQS |
| --- | --- | --- | --- | --- | --- | --- | --- | --- | --- | --- | --- | --- | --- | --- | --- | --- | --- | --- |
| M122I | 0.059 | 0.0619 | 0.073 | 0.0685 | 0.078 | 0.0603 | 0.0759 | 0.0571 | 0.0473 | 0.0766 | 0.0784 | 0.0771 | 0.11 | 0.0344 | – | – | – | – |
| Q146D | 0.0586 | 0.0606 | 0.0714 | 0.0815 | – | 0.0693 | – | 0.0754 | – | 0.0662 | 0.105 | 0.0682 | – | – | 0.0503 | – | – | – |
| Q198N | 0.059 | – | 0.0909 | 0.0663 | 0.0746 | 0.072 | 0.068 | 0.0588 | – | 0.0612 | 0.0759 | – | 0.0902 | 0.068 | – | 0.0667 | 0.0856 | 0.0753 |
| E3R | 0.061 | 0.0395 | 0.0742 | 0.0703 | 0.0685 | – | 0.0678 | 0.0575 | – | 0.0401 | 0.0671 | – | 0.0828 | – | 0.0666 | – | 0.0933 | 0.0715 |
| I84S | 0.0638 | 0.0677 | 0.0598 | 0.0595 | 0.0598 | 0.0617 | – | – | 0.0616 | – | 0.0646 | – | – | 0.0535 | – | – | 0.0612 | 0.0632 |
| K148C | 0.0633 | – | 0.102 | 0.073 | 0.0698 | 0.0063 | 0.0734 | 0.0648 | 0.0758 | 0.0717 | 0.0816 | – | 0.0794 | 0.0376 | 0.0505 | – | 0.0619 | 0.0436 |
| K98F | 0.0591 | – | 0.0795 | – | 0.0811 | 0.0836 | – | 0.0591 | – | – | – | – | – | 0.0708 | 0.0649 | – | – | 0.0446 |
| K98S | 0.0672 | – | – | – | 0.0799 | – | – | 0.0653 | 0.0593 | – | 0.0702 | 0.0519 | – | – | – | – | – | 0.0679 |
| S158N | 0.0486 | 0.0449 | 0.0603 | – | 0.0639 | 0.0665 | – | 0.0752 | – | – | 0.0747 | – | – | 0.0699 | 0.0737 | 0.0545 | 0.061 | – |
| S123N | 0.059 | 0.0638 | 0.0748 | 0.0989 | 0.0976 | 0.0824 | 0.0682 | 0.061 | – | 0.0857 | 0.0788 | – | – | 0.0574 | – | – | 0.082 | 0.0661 |
| Q105L | 0.0585 | 0.0721 | 0.107 | 0.0753 | 0.0841 | 0.0735 | 0.0613 | – | 0.0612 | 0.0526 | – | – | 0.0832 | 0.0663 | 0.0669 | – | 0.0834 | – |
| T129L | 0.0459 | 0.0707 | 0.0674 | 0.0845 | 0.0687 | – | – | 0.0615 | 0.0684 | – | 0.0417 | 0.0624 | 0.0822 | 0.0635 | – | – | – | 0.0553 |
| S209D | – | – | 0.0881 | 0.0681 | – | – | – | – | 0.0518 | 0.0653 | 0.0701 | – | – | 0.0622 | 0.0479 | 0.0689 | – | – |
| D82H | 0.0514 | 0.0594 | 0.0582 | – | 0.0575 | 0.0569 | 0.0464 | 0.0675 | 0.062 | 0.0733 | 0.0408 | – | – | 0.0589 | – | – | – | 0.0576 |
| V126C | 0.0698 | – | 0.0942 | 0.0708 | 0.0862 | – | – | 0.0623 | 0.0477 | – | 0.0786 | – | – | – | – | – | – | 0.0772 |
